Measurements as given in PMC4336329 (PLoS ONE, 2015).
The whole screen tested about 310,000 compounds, of which about 14,000 (4.5%) showed an effect of 50% or more. The effect is printed as a negative number. The list shows a part of the results.

Biological target: human ether-à-go-go-related gene (hERG) potassium channel (human, UniProt Q12809)
Assay: primary screen, population patch clamp on CHO cells stably expressing hERG
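Further: peak tail current of the secondary pulse compared with the same well before compound.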

Chain of human ether-à-go-go-related gene (hERG) potassium channel (Q12809 whole entry, looked up): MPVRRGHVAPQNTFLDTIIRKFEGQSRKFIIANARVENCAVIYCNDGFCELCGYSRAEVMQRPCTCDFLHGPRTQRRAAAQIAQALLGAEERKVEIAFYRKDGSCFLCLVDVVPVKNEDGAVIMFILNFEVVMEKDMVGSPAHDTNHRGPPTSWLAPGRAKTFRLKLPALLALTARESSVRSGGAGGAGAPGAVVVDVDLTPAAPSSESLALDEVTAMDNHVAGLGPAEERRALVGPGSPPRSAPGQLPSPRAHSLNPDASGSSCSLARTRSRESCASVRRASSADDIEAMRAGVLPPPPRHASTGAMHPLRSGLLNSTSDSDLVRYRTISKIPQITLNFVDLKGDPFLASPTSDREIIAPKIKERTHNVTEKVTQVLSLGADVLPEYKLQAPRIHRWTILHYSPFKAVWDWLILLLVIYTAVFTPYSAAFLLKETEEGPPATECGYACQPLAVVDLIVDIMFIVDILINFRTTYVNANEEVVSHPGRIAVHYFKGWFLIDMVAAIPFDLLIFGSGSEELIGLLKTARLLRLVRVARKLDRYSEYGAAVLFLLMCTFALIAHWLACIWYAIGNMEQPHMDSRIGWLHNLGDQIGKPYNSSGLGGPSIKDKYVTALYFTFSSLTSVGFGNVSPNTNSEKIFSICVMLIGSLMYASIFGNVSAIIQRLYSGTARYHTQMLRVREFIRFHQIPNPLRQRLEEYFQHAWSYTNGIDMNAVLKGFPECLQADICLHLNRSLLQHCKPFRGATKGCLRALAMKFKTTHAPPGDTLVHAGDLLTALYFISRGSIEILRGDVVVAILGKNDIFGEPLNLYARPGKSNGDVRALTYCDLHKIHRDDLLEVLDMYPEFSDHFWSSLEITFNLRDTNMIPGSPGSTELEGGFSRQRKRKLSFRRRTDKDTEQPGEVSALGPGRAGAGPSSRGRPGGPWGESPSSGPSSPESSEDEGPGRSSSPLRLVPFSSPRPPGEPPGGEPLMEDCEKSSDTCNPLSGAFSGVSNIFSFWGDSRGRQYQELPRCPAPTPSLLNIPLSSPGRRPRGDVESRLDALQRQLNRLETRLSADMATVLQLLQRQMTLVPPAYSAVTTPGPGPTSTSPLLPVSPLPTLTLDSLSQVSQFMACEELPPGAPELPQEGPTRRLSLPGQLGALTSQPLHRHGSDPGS

Structure (SMILES)	hERG current change (%, negative = inhibition) at 10uM [%]
CCc1ccccc1NC(=S)N(Cc1cccc(C)c1)c1cccnc1	20.3
COCCn1c(SCC(=O)Nc2cccc(NC(C)=O)c2)nc2c([nH]c3ccccc32)c1=O	15.2
Cc1ccc(-c2c[n+](=O)c3c(n2[O-])CCC3)cc1	20
Cc1ccc(CNC(=O)CSc2nc3ccccc3[nH]2)cc1	3.44
Cc1cc(C)nc(SCCC(=O)Nc2ccc(F)cc2)n1	7.84
Cc1ccc(-n2nnnc2SCC(=O)N2Cc3ccccc3CC2C(=O)O)cc1 (stereo not shown)	6.64
CNS(=O)(=O)c1cccc(C(=O)NNC(=O)c2ccc(COc3ccccc3)cc2)c1	6.84
O=C(COC(=O)c1ccccc1Oc1ccccc1)NCc1ccco1	-19.1
O=C(c1ccc(F)cc1)N1CCN(C2=NS(=O)(=O)c3ccccc32)CC1	-15.8
CCOc1ccc(C(C)(O)CN2CCOCC2)cc1 (stereo not shown)	14.8
O=C(NCCc1ccccc1)c1ccc2c(c1)S(=O)(=O)c1cc(Cl)ccc1C2=O	18.9
COc1ccc(C(=O)Cn2ccsc2=NC(C)=O)cc1	9.46
COc1ccc(CC(CC(=O)O)C(=O)Nc2ccc(Cl)c(Cl)c2)cc1 (stereo not shown)	19.6
CS(=O)(=O)N1CCN(C(=O)COc2ccccc2)CC1	56.2
N#C/C(=C\c1ccccc1)C(=O)NC(=O)Oc1ccccc1	17.2
COc1ccc(-c2nn3c(-c4ccccc4)nnc3s2)cc1OC	-9.45
O=C(C1CCC(=O)N(C2CC2)C1)N1CCN(c2ccc(Cl)cc2)CC1 (stereo not shown)	-38.1
CN(C)CCCN(C(=O)c1ccc(S(=O)(=O)N2CCc3ccccc3C2)cc1)c1nc2c(F)cc(F)cc2s1.Cl	-15.2
O=C(CSc1n[nH]c(=O)n1C1CC1)Nc1cc(Cl)ccc1Oc1ccccc1	-35.1
CCC(CC)C(=O)NCc1ccc(OC)cc1	2.37
Cc1ccccc1OCCOc1ccc([N+](=O)[O-])cc1/C=N/n1cnnc1	-28.3
COc1ccc([C@@H]2CC=C(C(=O)O)[C@H](c3ccc(Cl)cc3)N2S(=O)(=O)c2ccc(C)cc2)cc1OC	1.48
COCCCNC(=S)Nc1ccc2c(c1)OCCO2	-30.6
COC(=O)c1ccccc1NC(=O)CN1CCC(NC(=O)c2ccccc2C)CC1	-39.9
COc1ccccc1C(=O)Nc1sc(C(=O)N2CCCC2)c(C)c1C#N	12
CCOC(=O)N1CCN(c2nc(C)c3c(n2)CC(C)CC3=O)CC1 (stereo not shown)	-1.43
COc1ccc(C)cc1S(=O)(=O)N(C)CC(=O)N1CCN(C)CC1	2.65
CN(Cc1cnn(C)c1)Cc1nc(-c2ccc(Cl)cc2)no1	-4.26

Structure (SMILES)	hERG current change (%, negative = inhibition) at 10uM [%]
Cn1c(=O)[nH]c(=O)c2c1nc(Sc1ccccc1)n2CCc1ccccc1	5.97
CC(=O)Nc1ccc(/C=N/NC(=O)CCN2CCN(c3ccccc3)CC2)cc1	-2.3
C=CC1CN2CCC1CC2C(OC(C)=O)c1ccnc2ccc(OC)cc12 (stereo not shown)	-32.9
CC(C)(C)C(=O)CN1C(=O)NC(c2ccccc2)(c2ccccc2)C1=O	0.339
O=C(c1ccc(Cn2c(=S)[nH]c3ccc(Br)cc3c2=O)cc1)N1CCN(C2CCCCC2)CC1	15.1
NCCNc1ccc([N+](=O)[O-])c(NC2CC2)c1	-2.59
Cc1cc(NC(=O)c2cc(C3CC3)on2)no1	24.7
COc1ccc(C(C(=O)NC2CCCCC2)N(C(=O)c2csnn2)C2CC2)cc1 (stereo not shown)	-21.4
COc1cc(-n2c(=O)c3ccccc3n(CC(=O)c3ccccc3)c2=O)cc(OC)c1OC	9.1
COc1ccc(COC(=O)C2CCN(S(=O)(=O)c3ccc(C)cc3)CC2)cc1	-7.61
CCOC(=O)C1=C(C)NC(=O)NC1c1ccc(Br)o1 (stereo not shown)	7.02
CCN1C(=O)C2C(c3cccc(F)c3)NC(C)(C(=O)OC)C2C1=O (stereo not shown)	5.3
CC(c1ccccc1)C1CC(=O)N(c2cc(Cl)ccn2)C1=O (stereo not shown)	-16
COc1ccccc1N1CCN(CC(=O)Nc2nc(C)c(C(=O)N(C)C)s2)CC1	6.73
O=C(c1cc(Cl)ccc1Cl)N1CCN(Cc2ccccc2)CC1	5.54
O=C(COCc1nc2ccccc2c(=O)[nH]1)NCC1CCCCC1	-39.3
Cn1nnnc1Sc1ncnc2scc(-c3ccc(C(F)(F)F)cc3)c12	-3.45
Nc1ccc(-c2nc3ccccc3[nH]2)cc1	-5.4
C=CCNC(=O)/C(C#N)=C/c1c(N(Cc2ccccc2)Cc2ccccc2)nc2ccccn2c1=O	-44.2
CC(NC(=S)N1CCN(c2ccccc2)CC1)c1ccccc1 (stereo not shown)	5.05
COc1ccc(C2=NN(C(=O)CCC(=O)O)C(c3ccc(OC)cc3)C2)cc1 (stereo not shown)	-0.757
O=C(Cc1cccc(C(F)(F)F)c1)OCC(=O)N1CCN(S(=O)(=O)c2ccc(Cl)cc2)CC1	-6.07
Cc1cccc(Cn2c(SCC(=O)Nc3ccccc3)nc3c2c(=O)[nH]c(=O)n3C)c1	-30.2
CCOC(=O)C(=Cc1cn(C)c2ccc(S(=O)(=O)N(C)C)cc12)C(=O)OCC	8.8
Cc1ccc(S(=O)(=O)Nc2c(O)ccc3ccccc23)cc1	-0.72
O=C(N/N=C/c1c(Nc2cccc(C(F)(F)F)c2)nc2ccccn2c1=O)c1ccccc1[N+](=O)[O-]	8.72
C=CCOc1c(Br)cc(CNn2c(C)n[nH]c2=S)cc1OCC	12.1
